# Assay results reported in PubChem BioAssay (NCATS).
# The shares of active, inactive and inconclusive entries below differ from those in the screen. For some of these results: Potencies of inconclusive entries are left out as doubtful fits. Calls of active or inactive are those of the source. Unless noted, the call rests on the fitted dose curve; in most records, active means well fitted curve in the direction sought with a large enough effect; inconclusive means small, poorly fitted or top-dose-only effect, or another doubt; inactive means no such curve, though single readings can be large; an effect the other way counts as inactive or inconclusive. Non-standard residues stand in square brackets, D forms with d. Residues, ends and D or L forms follow the SMILES beside them. *: point of attachment. Fmoc = O=C(OCC1c2ccccc2-c2ccccc21)*; AMC = Cc1cc(=O)oc2cc(N*)ccc12; Cha = N[CH](CC1CCCCC1)C(=O)O
# Tests used:
# [1] = tested on: Zika virus NS2B-NS3 protease; test: Primary screen GU AMC qHTS for Zika virus inhibitors (AID 1347154); further: nearly all actives have a fitted effect of over 70% in size; further: potency means the concentration at half of the fitted maximal effect
# Outline: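 Fluorogenic AMC-substrate cleavage by noncovalent NS2B-NS3 protease complex (25 nM, pH 8.0 Tris buffer with Tween 20) followed for 15 minutes at room temperature (~20% conversion). Percent inhibition from ex340/em450 signal change, fitted by 4-parameter Hill equation.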
# [2] = target: 3',5'-cyclic-AMP phosphodiesterase 4B (Homo sapiens) (UniProt Q07343); test: qHTS Assay for Inhibitors of PDE-IV (AID 607; active means well fitted activation curve with a large enough effect in the main read-out, with a control signal flat, not every such curve was filed as active; inconclusive means small, poorly fitted or top-dose-only effect, or effect the other way, or a change in a side signal; further: potency means the concentration at half of the fitted maximal effect); settings: HEK293 ACTOne CNG channel cells, membrane potential fluorescence; series mostly up to 22.9 µM
# Outline: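 HEK293 ACTOne cells with CNG channel (1000/well), endogenous PDE4; membrane potential dye, compounds up to 22.9 uM final. Fluorescence Ex 535/Em 590; RO 20-1724 (100 uM final) as reference.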
# [3] = target: Cytochrome P450 3A4 (Homo sapiens) (UniProt P08684); test: qHTS Assay for Inhibitors and Substrates of Cytochrome P450 3A4 (AID 884); settings: recombinant CYP3A4, Luciferin-PPXE luminescence; activity change, negative = inhibition: at 57.1 µM (top of the series); further: potency means the concentration at half of the fitted maximal effect; nearly all actives have a fitted effect of over 50% in size
# Outline: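 Luminescent readout of luciferin produced by CYP3A4 (20 nM) dealkylation of Luciferin-PPXE, 25 uM (its KM). NADPH-driven reaction ran 60 min at RT after 10 min compound preincubation; data scaled to 57 uM ketoconazole as 100% inhibition.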
# [4] = target: ATP-dependent 6-phosphofructokinase (Trypanosoma brucei brucei) (UniProt O15648); test: qHTS Validation Assay to Find Inhibitors of T. brucei phosphofructokinase (AID 485368)
# Outline: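 Luminescent ADP detection measures PFK turnover of fructose-6-phosphate (0.5 mM) with ATP (0.1 mM) at pH 8.0. Reaction runs 45 min at room temperature with 1.25 nM enzyme; inhibitors tested as titrations up to 57 uM.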
# [5] = target: Chromobox protein homolog 1 (Homo sapiens) (UniProt P83916); test: qHTS Validation Assay for Inhibitors of HP1-beta Chromodomain Interactions with Methylated Histone Tails (AID 488953); further: potency means the concentration at half of the fitted maximal effect; nearly all actives have a fitted effect of over 50% in size
# Outline: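 AlphaScreen proximity signal from streptavidin donor and nickel chelate acceptor beads (final 10 ug/mL) after 30 min dark incubation. Compounds had 30 min at room temperature with preformed complex of 50 nM HP1-beta and 50 nM b-H3(1-18)K9me3 in PBS pH 7.4 with 0.01% Tween-20.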
# [6] = Nrf2 qHTS screen for inhibitors: Validation (AID 493153; active means well fitted inhibition curve with a large enough effect in the main read-out, with a control signal flat, not every such curve was filed as active; inconclusive means small, poorly fitted or top-dose-only effect, or effect the other way, or a change in a side signal; inactive means no such curve, though single readings can be large or run the other way; further: potency means the concentration at half of the fitted maximal effect)
# Outline: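 Concentration-response on A549 ARE_Fluc reporter cells exposed 18-24 h at 37 C, 5% CO2. Cytotoxicity read first by CellTiter-Fluor fluorescence (Ex 405/Em 525), then Nrf2 inhibition by BugLite luminescence after 15 min.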
# [7] = target: Glucagon-like peptide 1 receptor (Homo sapiens) (UniProt P43220); test: qHTS of GLP-1 Receptor Agonists: LOPAC Validation (AID 624148);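 further: luminescence from a luciferase reporter switched on by cAMP; potency means the concentration at half of the fitted maximal effect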
# Outline: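 Agonism scored as increased luciferase luminescence driven by cAMP in HEK293 clones carrying GLP-1R. Cells settled 12 hours, received compound for 4-6 hr at 37 deg C, 5% CO2, and were read after 12 min detection reagent at RT.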
# [8] = HTS Assay for Allosteric Antagonists of the Human D2 Dopamine Receptor: Hit Validation in HTRF (AID 624455);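 further: stable D1 dopamine receptor cell line scored for blocking the D1 response; potency means the concentration at half of the fitted maximal effect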
# Outline: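 Inhibition of the D1-mediated response was measured by HTRF. Cells used were a line stably expressing the D1 dopamine receptor.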
# [9] = qHTS Assay for Identifying Gametocytocidal Compounds (AID 743244); further: potency means the concentration at half of the fitted maximal effect; settings: P. falciparum 3D7 stage III-V gametocytes, alamarBlue, 72 h; max response: active compounds read low
# Outline: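 Viability read-out was resazurin reduction (alamarBlue, 24 h) measured at Ex 525/Em 598 nm. Beforehand, late-stage (III-V) 3D7 P. falciparum gametocytes at 20,000 cells/well were incubated with compound 72 h at 37C under 5% CO2.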
# [10] = target: Single-stranded DNA cytosine deaminase (Homo sapiens) (UniProt Q9GZX7); test: Validation qHTS assay for inhibitors of Activation Induced Cytidine Deaminase (AID): AID signal (AID 1347429); further: potency means the concentration at half of the fitted maximal effect
# Outline: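 Compounds (final up to 114 uM) preincubated with AID plus UDG; 250 nM DJC20/DJC23 substrate mix (4x stock) added, 4 hr at room temperature, then NaOH, 30 min. Read 1 fluorescence at 540 nm excitation, 590 nm emission.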
# [11] = Primary qHTS for small molecule stabilizers of the endoplasmic reticulum resident proteome: Secreted ER Calcium Modulated Protein (SERCaMP) assay (AID 1508630); settings: SH-SY5Y GLuc-SERCaMP (Gaussia luciferase released on ER calcium loss) secretion, thapsigargin, luminescence; activity change, negative = inhibition: at 38.4 µM (top of the series) unless noted; further: potency means the concentration at half of the fitted maximal effect
# Outline: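 The SH-SY5Y reporter protocol was run at 3 concentrations up to 38.3 uM (primary) or 11 concentrations (follow-up): 16 h compound, 100 nM thapsigargin for 4 h, then extracellular luciferase luminescence.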
# Tags describe the fitted curve by direction and shape.
# UniProt P83916, sequence (P83916 whole entry, looked up): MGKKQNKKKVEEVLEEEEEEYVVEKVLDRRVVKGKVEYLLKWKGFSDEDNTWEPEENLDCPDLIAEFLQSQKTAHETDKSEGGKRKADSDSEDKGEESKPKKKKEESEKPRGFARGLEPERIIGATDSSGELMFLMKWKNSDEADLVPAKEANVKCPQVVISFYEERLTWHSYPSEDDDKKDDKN
# UniProt Q07343, sequence (Q07343 whole entry, looked up): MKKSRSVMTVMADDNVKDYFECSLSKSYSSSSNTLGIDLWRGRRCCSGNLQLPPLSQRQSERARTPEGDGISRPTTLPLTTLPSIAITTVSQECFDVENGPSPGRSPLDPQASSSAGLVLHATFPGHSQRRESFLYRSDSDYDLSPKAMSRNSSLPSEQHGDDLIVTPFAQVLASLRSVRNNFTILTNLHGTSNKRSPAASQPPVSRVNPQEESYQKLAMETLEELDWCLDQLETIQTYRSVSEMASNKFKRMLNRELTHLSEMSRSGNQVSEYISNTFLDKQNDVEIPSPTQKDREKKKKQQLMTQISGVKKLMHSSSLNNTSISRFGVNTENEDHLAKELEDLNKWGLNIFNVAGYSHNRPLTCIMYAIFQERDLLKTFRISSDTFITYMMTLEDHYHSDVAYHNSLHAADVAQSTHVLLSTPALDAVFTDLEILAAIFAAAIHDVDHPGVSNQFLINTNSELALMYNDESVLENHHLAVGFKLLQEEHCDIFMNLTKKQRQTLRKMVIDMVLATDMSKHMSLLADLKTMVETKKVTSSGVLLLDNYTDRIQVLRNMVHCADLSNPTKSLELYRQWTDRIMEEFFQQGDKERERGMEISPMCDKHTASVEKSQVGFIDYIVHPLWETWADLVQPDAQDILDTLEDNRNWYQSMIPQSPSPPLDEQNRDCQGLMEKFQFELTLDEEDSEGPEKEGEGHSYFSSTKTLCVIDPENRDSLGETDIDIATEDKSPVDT
# UniProt Q9GZX7, sequence (Q9GZX7 whole entry, looked up): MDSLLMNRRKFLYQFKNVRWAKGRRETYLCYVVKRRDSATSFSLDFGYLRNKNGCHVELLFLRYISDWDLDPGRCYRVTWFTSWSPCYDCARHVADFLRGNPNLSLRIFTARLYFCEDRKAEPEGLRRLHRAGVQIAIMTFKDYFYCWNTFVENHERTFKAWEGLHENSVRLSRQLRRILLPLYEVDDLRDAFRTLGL
# UniProt P43220, sequence (P43220 whole entry, looked up): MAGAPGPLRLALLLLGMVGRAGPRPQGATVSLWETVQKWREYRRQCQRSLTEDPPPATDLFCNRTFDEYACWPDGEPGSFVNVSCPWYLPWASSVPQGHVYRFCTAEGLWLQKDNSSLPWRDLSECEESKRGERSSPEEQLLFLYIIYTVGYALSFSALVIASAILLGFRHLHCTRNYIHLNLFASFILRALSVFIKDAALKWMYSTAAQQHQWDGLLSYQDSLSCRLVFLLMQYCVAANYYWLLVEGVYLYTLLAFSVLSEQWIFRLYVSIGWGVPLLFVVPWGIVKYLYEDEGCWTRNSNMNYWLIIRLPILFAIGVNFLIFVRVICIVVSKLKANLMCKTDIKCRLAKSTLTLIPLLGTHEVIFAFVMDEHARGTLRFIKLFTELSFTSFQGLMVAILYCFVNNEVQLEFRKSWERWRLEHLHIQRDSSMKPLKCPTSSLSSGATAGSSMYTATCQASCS
# UniProt P08684, sequence (P08684 whole entry, looked up): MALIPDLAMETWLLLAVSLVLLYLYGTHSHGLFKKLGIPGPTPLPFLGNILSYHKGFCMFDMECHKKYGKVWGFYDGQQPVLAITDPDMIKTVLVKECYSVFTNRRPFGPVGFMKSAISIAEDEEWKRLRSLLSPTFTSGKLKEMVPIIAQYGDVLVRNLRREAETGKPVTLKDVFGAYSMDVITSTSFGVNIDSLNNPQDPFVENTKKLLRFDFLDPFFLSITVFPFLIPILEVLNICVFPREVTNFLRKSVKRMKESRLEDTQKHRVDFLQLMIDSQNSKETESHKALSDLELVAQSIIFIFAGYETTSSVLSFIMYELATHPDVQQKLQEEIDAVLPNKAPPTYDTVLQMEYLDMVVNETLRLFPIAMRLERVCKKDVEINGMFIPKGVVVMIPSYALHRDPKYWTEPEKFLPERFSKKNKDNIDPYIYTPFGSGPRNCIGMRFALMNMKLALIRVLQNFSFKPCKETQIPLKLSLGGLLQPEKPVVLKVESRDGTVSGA
# UniProt O15648, sequence (O15648 whole entry, looked up): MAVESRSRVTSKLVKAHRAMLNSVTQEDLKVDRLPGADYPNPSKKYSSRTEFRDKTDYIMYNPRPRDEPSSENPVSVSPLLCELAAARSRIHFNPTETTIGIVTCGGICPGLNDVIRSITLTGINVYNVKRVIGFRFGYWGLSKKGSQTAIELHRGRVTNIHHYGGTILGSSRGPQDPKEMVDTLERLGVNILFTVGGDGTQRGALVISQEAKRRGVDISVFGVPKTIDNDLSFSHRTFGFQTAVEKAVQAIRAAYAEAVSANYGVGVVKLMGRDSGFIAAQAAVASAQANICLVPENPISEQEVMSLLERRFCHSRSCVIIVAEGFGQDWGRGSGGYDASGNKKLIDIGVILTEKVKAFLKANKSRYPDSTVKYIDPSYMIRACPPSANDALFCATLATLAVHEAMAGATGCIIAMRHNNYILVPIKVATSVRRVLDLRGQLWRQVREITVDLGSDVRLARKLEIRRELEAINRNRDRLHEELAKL
structure (smiles),measurement,setting,value
O=C(CCCc1ccc(-c2ccccc2F)cc1)Nc1ccc(O)cc1,Potency,[1],"inconclusive [inhibitor, single point]"
CN(C)CCCc1cc(C(=O)Nc2ccc(-c3ccncc3)cc2)ccc1O,Potency,[2],"inconclusive [activator, partial curve]"
same,Potency,[3],"inconclusive [inhibitor, full curve]"
same,Potency,[4],inactive
same,Potency,[5],"inconclusive [inhibitor, single point]"
same,Potency,[6],"inconclusive [inhibitor, single point]"
same,Potency,[7],"inconclusive [activator, single point]"
same,Potency,[8],"inconclusive [inhibitor, single point]"
same,Potency,[9],"inconclusive [inhibitor, single point]"
same,Potency,[1],"inconclusive [inhibitor, single point]"
same,Potency,[10],"inconclusive [inhibitor, partial curve]"
OC[C@H]1O[C@H](n2cnc3c(NC4CCCC4)nc(Cl)nc32)[C@@H](O)[C@@H]1O,Potency,[1],inactive
same,Potency,[11],"inconclusive [inhibitor, full curve]"
Cc1cc(=O)oc2cc(NC(=O)C(CCCCN)NC(=O)C(CC3CCCCC3)NC(=O)OCC3c4ccccc4-c4ccccc43)ccc12 (configuration not stated) (Fmoc-[Cha]-Lys-{AMC}; configuration not given here),Potency,[1],active: 18.9 µM
c1ccc2[nH]c(NCCCc3cnc[nH]3)nc2c1,Potency,[1],inactive
N[C@H](C(=O)O)c1ccc(C(=O)O)c(O)c1,Potency,[1],active: 26.7 µM
same,Potency,[11],"inconclusive [inhibitor, full curve, poor fit]"
C[n+]1ccc(/C=C/c2ccc3ccccc3c2)cc1,Potency,[1],"inconclusive [inhibitor, partial curve]"
CCCCCCCCCCCCCCCC(=O)C1=C(O)C(CO)OC1=O (configuration not stated),Potency,[1],"inconclusive [inhibitor, partial curve]"
CCCc1c(OCC(O)COc2ccc3c(=O)cc(C(=O)O)oc3c2CCC)ccc(C(C)=O)c1O (configuration not stated),Potency,[1],"inconclusive [inhibitor, single point]"
CN(C)C(=O)OC1=C(c2ccccc2)Sc2ccccc2-n2cccc21,Potency,[1],"inconclusive [inhibitor, partial curve, poor fit]"
same,Potency,[11],inactive
